# Measured values taken from patent US20090047335A1, “Anti-angiogenic peptides and methods of use thereof” (SOPHERION THERAPEUTICS, INC., priority 2004, published 2009).
# “And” between values parts separate entries of the source, which are not always exact repeats. Equal entries are not always repeated. At least one peptide structure holds a part that was inferred or is arguable (an end, a ring closure or a residue). Some compounds share one wording; it may come from a single statement.
# Legend:
# [1] = test system: bovine retinal endothelial cells (BRE); assay: VEGF mediated survival/proliferation of BRE cells, WST-1 assay, peptides added after cells had adhered; assay type: cell-based; details: for WST-1 induced colorimetric change measured at 440 nm, average: average of wells; for WST-1 induced colorimetric change measured at 440 nm: single wells
# [2] = test system: VEGF-induced angiogenesis; assay: VEGF-induced angiogenesis in Matrigel angio-reactors in FVB/N mice, FITC-dextran fluorescence; assay type: in vivo; details: for relative fluorescence (FITC-dextran) of angio-reactors, mean: group mean
# Method: The peptides of the invention were also tested in an in vivo model of anti-angiogenic activity. This model analyzes VEGF-induced angiogenesis as it occurs in angio-reactors filled with Matrigel in wild-type FVB/N mice (Guedez et al., 2003, Am. J. Pathol. 162:1431-1439).
# • Sterile, polyethene tubing (0.14 cm internal diameter) is cut to standard 1 cm lengths using a plexiglass template and single edge razor blade. These tubes are sealed at one end with nail-polish. Into the tubes, 20 μl of Matrigel (growth factor free obtained from BD Biosciences) containing 500 ng/ml VEGF with or without the indicated peptides is injected. After one hour of polymerization of the Matrigel at room temperature the angio-reactors are subcutaneously implanted into both flanks of wild-type FVB/N female mice (8-10 weeks old).
# • After 10 days, angiogenesis in the angio-reactors is determined. Mice receive a 100 μl injection of 25 mg/ml of FITC-dextran in phosphate-buffered saline (PBS) via tail vein 20 minutes before collection of the angio-reactors. Quantification of vessel functionality is performed by removal of the Matrigel from the angio-reactors and the fluorescence is measured using a FLUOstar Galaxy microplate reader (excitation 485 nm, emission 520 nm, BMG Labtechnologies GmbH, Germany). The mean relative fluorescence±SD for 10 angio-reactors is determined and statistical analysis performed.
# [3] = test system: bovine retinal endothelial cells (BRE); assay: VEGF mediated survival/proliferation of BRE cells, WST-1 assay, peptides added at plating (before cells adhered); assay type: cell-based; details: for WST-1 induced colorimetric change measured at 440 nm, average: average of wells, Table 6
# Method: The anti-angiogenic activities of the peptides were tested by measuring the level of inhibition of VEGF mediated survival/proliferation of bovine retinal endothelial cells (BRE), a standard cell line used to test anti-angiogenic compounds. Cells were maintained in Cambrex EGM-2MV medium. On day one cells were starved for either 6 hours or overnight, and thereafter trypsinized and plated in a 96 well plate in 100 μl of Invitrogen OptiMem+1% fetal bovine serum. A 100 μl aliquot of Invitrogen OptiMem+1% fetal bovine serum was then added to the wells in addition to, where appropriate, VEGF to a final concentration of 25 ng/ml and the various peptides to final concentration of 12.5, 25, 50 and 100 μg/ml. After 72 hours incubation, the number of live cells in each well was determined using the WST-1 assay (Roche).
# The experiment was repeated using higher concentrations of peptide, to a maximum concentration of 200 μg/ml. This required the addition of a substantial amount of water (the peptides are soluble in water and are maintained as stock solution of 2 mg/ml). Therefore, we tested whether the addition of water itself would have any inhibitory effects. As before, BRE were maintained in Cambrex EGM-2MV medium. On day one, cells were starved for either 6 hours or overnight, and thereafter trypsinized and plated in a 96 well plate in 100 μl of OptiMem+1% fetal bovine serum. A 100 μl aliquot of OptiMem+1% fetal bovine serum was then added to the wells, further containing, where appropriate, VEGF to a final concentration of 25 ng/ml and the various peptides to final concentration of 25, 50, 100 and 200 μg/ml. After 72 hours incubation, the amount of live cells in each well was measured using the WST-1 assay (Roche). […]
# [4] = experiment 2, Bonferroni's Multiple Comparison Test
smiles,measurement,setting,value
"CC(C)C[C@H](NC(=O)[C@H](CO)NC(=O)[C@@H](NC(=O)[C@H](C)N)[C@@H](C)O)C(=O)N1CCC[C@H]1C(=O)N1CCC[C@H]1C(=O)N[C@@H](Cc1c[nH]cn1)C(=O)N[C@@H](CO)C(=O)N[C@@H](CO)C(=O)N[C@@H](CCC(N)=O)C(=O)N[C@@H](CO)C(=O)N1CCC[C@H]1C(=O)O [ST100,038, ATSLPPHSSQSP]",WST-1 decreases on adherent BRE (in words),"[1]; Table 5 experiment, 10-75 μg/ml, peptides added after cells adhered",statistically significant for the 2 highest concentrations
same,BRE growth and survival (in words),"[1]; Table 7, peptides added after the cells have adhered",substantially inhibited BRE growth and survival
same,"WST-1 induced colorimetric change measured at 440 nm, average","[1]; adherent cells, peptide 10 μg/ml, Table 5",0.7003
same,"WST-1 induced colorimetric change measured at 440 nm, average","[1]; adherent cells, peptide 30 μg/ml, Table 5",0.6927
same,"WST-1 induced colorimetric change measured at 440 nm, average","[1]; adherent cells, peptide 50 μg/ml, Table 5",0.6047
same,"WST-1 induced colorimetric change measured at 440 nm, average","[1]; adherent cells, peptide 75 μg/ml, Table 5",0.5103
same,"WST-1 induced colorimetric change measured at 440 nm, average","[1]; after cells adhered, repeat, peptide 10, Table 7",0.4983
same,"WST-1 induced colorimetric change measured at 440 nm, average","[1]; after cells adhered, repeat, peptide 30, Table 7",0.481
same,"WST-1 induced colorimetric change measured at 440 nm, average","[1]; after cells adhered, repeat, peptide 50, Table 7",0.4483
same,"WST-1 induced colorimetric change measured at 440 nm, average","[1]; after cells adhered, repeat, peptide 75, Table 7",0.4423
same,WST-1 induced colorimetric change measured at 440 nm,"[1]; added after cells adhered, repeat, peptide 10, Table 7",0.484 and 0.505 and 0.506
same,WST-1 induced colorimetric change measured at 440 nm,"[1]; added after cells adhered, repeat, peptide 30, Table 7",0.479 and 0.481 and 0.483
same,WST-1 induced colorimetric change measured at 440 nm,"[1]; added after cells adhered, repeat, peptide 50, Table 7",0.447 and 0.445 and 0.453
same,WST-1 induced colorimetric change measured at 440 nm,"[1]; added after cells adhered, repeat, peptide 75, Table 7",0.445 and 0.442 and 0.44
same,WST-1 induced colorimetric change measured at 440 nm,"[1]; adherent cells, peptide 10 μg/ml, VEGF 25 ng/ml, 72 h, Table 5",0.693 and 0.691 and 0.717
same,WST-1 induced colorimetric change measured at 440 nm,"[1]; adherent cells, peptide 30 μg/ml, VEGF 25 ng/ml, 72 h, Table 5",0.671 and 0.702 and 0.705
same,WST-1 induced colorimetric change measured at 440 nm,"[1]; adherent cells, peptide 50 μg/ml, VEGF 25 ng/ml, 72 h, Table 5",0.579 and 0.626 and 0.609
same,WST-1 induced colorimetric change measured at 440 nm,"[1]; adherent cells, peptide 75 μg/ml, VEGF 25 ng/ml, 72 h, Table 5",0.5 and 0.52 and 0.511
same,VEGF-mediated angiogenesis in angio-reactors (in words),"[2]; experiment 1, 40 micromolar, only three responding VEGF controls used",clearly inhibit VEGF-mediated angiogenesis
same,"relative fluorescence (FITC-dextran) of angio-reactors, mean","[2]; experiment 1, VEGF + inhibitor 40 μM",6274
same,"relative fluorescence (FITC-dextran) of angio-reactors, mean","[2]; experiment 1, VEGF + inhibitor 160 μM",36271
same,"Mean Diff., pbs vs inhibitor group",[2]; [4],−432.4
same,"Mean Diff., tsp vs inhibitor group",[2]; [4],−431.9
same,"Mean Diff., vegf vs inhibitor group",[2]; [4],2213
same,"relative fluorescence of angio-reactors, average","[2]; experiment 2, group average",1066.889
same,"relative fluorescence of angio-reactors, median","[2]; experiment 2, group median",981
same,VEGF-mediated angiogenesis in angio-reactors (in words),"[2]; experiment 2, medians, FIG. 16",clearly inhibit VEGF-mediated angiogenesis
same,VEGF stimulated survival/proliferation of BRE (in words),[3]; 50 μg/ml,completely inhibit
same,"WST-1 decreases, Student's t-test vs VEGF only wells (in words)","[3]; Table 2 experiment, 12.5-100 μg/ml",statistically significant for the two highest concentrations
same,"WST-1 decreases, Student's t-test vs VEGF only wells (in words)","[3]; Table 3 experiment, 25-200 μg/ml",statistically significant for all concentrations
same,"number and morphology of cells (photomicrographs, FIG. 8)",[3]; VEGF plus 50 μg/ml peptide,very few cells
same,"number and morphology of cells (photomicrographs, FIG. 5)",[3]; VEGF plus 100 μg/ml peptide,very few cells
same,"WST-1 induced colorimetric change measured at 440 nm, average","[3]; 10% serum, first line of averages (75)",0.618
same,"WST-1 induced colorimetric change measured at 440 nm, average","[3]; 10% serum, fourth line of averages (10)",0.6917
same,"WST-1 induced colorimetric change measured at 440 nm, average","[3]; 10% serum, second line of averages (50)",0.6557
same,"WST-1 induced colorimetric change measured at 440 nm, average","[3]; 10% serum, third line of averages (30)",0.661
same,"WST-1 induced colorimetric change measured at 440 nm, average","[3]; before cells adhered, first line of averages (75)",0.4433
same,"WST-1 induced colorimetric change measured at 440 nm, average","[3]; before cells adhered, fourth line of averages (10)",0.528
same,"WST-1 induced colorimetric change measured at 440 nm, average","[3]; before cells adhered, second line of averages (50)",0.4747
same,"WST-1 induced colorimetric change measured at 440 nm, average","[3]; before cells adhered, third line of averages (30)",0.5213
